Results taken from patent US20200392228A1 (PANDION OPERATIONS, published 2020).

B1: MAdCAM antibody Clone ID 62 of Table 6 (scFv) (scFv)
scFv: QVQLVQSGAEVKKPGSSVKVSCKASGGTFSSYAISWVRQAPGQGLEWMGWMEPHTGNTRYAQKFQGRVTITADESTSTAYMELSSLRSEDTAVYYCAKGGFSWFDPWGQGTLVTVSSGGGGSGGGGSGGGGSGGGG[about 100 residues cut from this listing]FGQGTRLEIK
B2: human IL-2M fused C-terminally to human IgG1 Fc domain (SEQ ID NO: 58) (Fc fusion)
chain: [human IgG1 Fc with changes cut from this listing]GGGSAPTSSSTKKTQLQLEHLLLDLQMILNGINNYKNPKLTRMLTFKFYMPKKATELKHLQCLEEELKPLEEALNLAPSKNFHLRPRDLISDINVIVLELKGSETTFMCEYADETATIVEFLNRWITFAQSIISTLT
notes: also called Fc-G4S-IL-2 N88D V69A, Q74P

What was measured:
[1] = target: T1, human MAdCAM protein (human, UniProt Q13477 19-317); assay: Octet
T1 construct: used for Octet, SPR, ELISA and plate capture; construct not described; also called recombinant human MAdCAM; soluble monomeric human MAdCAM
T1 sequence (looked up): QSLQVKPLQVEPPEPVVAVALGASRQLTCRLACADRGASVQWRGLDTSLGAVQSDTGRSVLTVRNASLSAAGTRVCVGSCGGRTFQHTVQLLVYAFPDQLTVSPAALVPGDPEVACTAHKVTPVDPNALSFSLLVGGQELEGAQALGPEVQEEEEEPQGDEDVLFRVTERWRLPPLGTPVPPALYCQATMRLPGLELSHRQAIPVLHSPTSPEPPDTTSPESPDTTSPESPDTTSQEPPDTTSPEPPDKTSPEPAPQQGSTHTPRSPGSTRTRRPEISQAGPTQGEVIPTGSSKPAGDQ

[2] = target: T2, human MAdCAM expressed on cells (human, UniProt Q13477 19-382); assay: cell binding
T2 construct: whole, on cells; also called MADCAM1
T2 sequence (looked up): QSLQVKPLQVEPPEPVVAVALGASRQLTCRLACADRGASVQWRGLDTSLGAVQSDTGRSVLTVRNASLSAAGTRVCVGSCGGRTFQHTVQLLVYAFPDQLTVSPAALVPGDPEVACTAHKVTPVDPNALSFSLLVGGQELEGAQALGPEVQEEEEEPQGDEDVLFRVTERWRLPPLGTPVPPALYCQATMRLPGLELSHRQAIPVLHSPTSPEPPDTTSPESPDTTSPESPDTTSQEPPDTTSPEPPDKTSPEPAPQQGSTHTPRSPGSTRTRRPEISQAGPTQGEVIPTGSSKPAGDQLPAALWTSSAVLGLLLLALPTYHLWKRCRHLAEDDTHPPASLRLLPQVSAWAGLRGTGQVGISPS

[3] = target: T3, mouse MAdCAM expressed on cells (mouse, UniProt Q61826 22-405); assay: cell binding
T3 construct: whole, on cells
T3 sequence (looked up): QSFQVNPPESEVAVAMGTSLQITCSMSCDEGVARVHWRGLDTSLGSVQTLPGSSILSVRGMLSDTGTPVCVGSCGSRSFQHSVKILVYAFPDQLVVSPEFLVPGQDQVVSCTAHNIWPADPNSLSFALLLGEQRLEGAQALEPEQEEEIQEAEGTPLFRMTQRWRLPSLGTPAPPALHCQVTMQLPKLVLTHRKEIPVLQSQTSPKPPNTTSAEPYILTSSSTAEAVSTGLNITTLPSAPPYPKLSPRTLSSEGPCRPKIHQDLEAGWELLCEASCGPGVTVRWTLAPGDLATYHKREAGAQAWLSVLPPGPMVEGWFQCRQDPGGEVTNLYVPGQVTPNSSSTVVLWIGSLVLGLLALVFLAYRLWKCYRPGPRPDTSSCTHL

[4] = target: T4, CD25 (Homo sapiens (Human), UniProt P01589 22-240); assay: ELISA, plate-bound CD25
T4 construct: also called IL-2R alpha chain
T4 sequence: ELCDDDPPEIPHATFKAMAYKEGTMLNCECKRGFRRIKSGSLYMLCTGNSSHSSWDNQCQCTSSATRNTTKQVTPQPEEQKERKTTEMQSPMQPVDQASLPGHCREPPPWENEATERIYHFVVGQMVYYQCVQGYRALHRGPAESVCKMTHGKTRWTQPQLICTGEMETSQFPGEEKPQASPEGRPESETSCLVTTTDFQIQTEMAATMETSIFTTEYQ
Experimental: An immunosorbent plate was coated with CD25 at a concentration of 0.5 μg/mL in PBS pH 7.4, 75 ul/well, and incubated overnight at 4° C. Wells were washed with PBS pH 7.4 containing 0.05% Tween-20 (wash buffer) three times, and then blocked with 200 ul/well 1% BSA in PBS pH 7.4 (block buffer) for two hours at room temperature. After three washes with wash buffer IL-2M molecules of Example 12 were diluted to eleven—two fold serial dilution in PBS containing 1% BSA and 0.05% Tween-20 (assay buffer) with 2 nM being the highest concentration. The diluted material was added to the CD25 coated plate at 75 ul/well for 1 hour at room temperature. After three washes with wash buffer, a goat biotinylated anti-IL-2 polyclonal antibody, diluted to 0.05 μg/mL in assay buffer, was added to the plate at 75 ul/well for 1 hr at room temperature. After three washes with wash buffer high sensitivity streptavidin HRP diluted in assay buffer at 1:5000 was added to the plate at 75 ul/well for 15 minutes at room temperature. After three washes with wash buffer and 1 wash with wash buffer (with no tween-20), the assay was developed with TMB, and stopped with 1N HCL. OD 450 nm was measured. The experiment included appropriate controls for non-specific binding of IL-2M molecules to the plate/block in the absence of CD25 and a negative control molecule that is unable to bind CD25.

| binding result [1] | binding result [2] | binding result [3] | EC50 [4] | Binder |
| --- | --- | --- | --- | --- |
| binds | binds | binds |  | B1 |
|  |  |  | < 1 nM | B2 |
